Laboratory results: the antibiotic and cytotoxicity screens of Wong et al. (2023)
This is one part of the list.

Assays:
HSkMC = human skeletal muscle cells; test: cytotoxicity call (relative viability < 0.9); conditions: 10 µM
S. aureus RN4220 = test: growth inhibition call (relative growth <= 0.2); conditions: 50 µM

| Compound | cytotoxicity call (HSkMC) | growth inhibition call (S. aureus RN4220) |
| --- | --- | --- |
| C[C@@H](O)CC1=C[C@H]([C@@H](C)O)OC1=O | inactive | inactive |
| C[C@@H]1CCCCO[C@H](CN(C)S(=O)(=O)c2ccccc2)[C@@H](C)CN([C@@H](C)CO)C(=O)c2cc(NS(C)(=O)=O)ccc2O1 | inactive | inactive |
| O=C(O)C(O)C(O)C(OC1OC(CO)C(O)C(O)C1O)C(O)CO (stereo not given) | inactive | inactive |
| C[C@H]1CN([C@@H](C)CO)C(=O)c2ccccc2-c2ccccc2CO[C@H]1CN(C)C(=O)Nc1cccc(C(F)(F)F)c1 | inactive | inactive |
| COC(=O)C1=CO[C@@H](O[C@@H]2O[C@H](CO)[C@@H](O)[C@H](O)[C@H]2O)[C@@H]2[C@@](C)(O)[C@@H](OC(=O)/C=C/c3ccc(O)cc3)C[C@]12O | inactive | inactive |
| Cc1cc(-c2ccccc2)oc2cc3ccccc3c1-2 | inactive | inactive |
| CNC[C@@H]1Oc2ccc(NC(=O)CCN3CCOCC3)cc2CC(=O)N([C@H](C)CO)C[C@H]1C | inactive | inactive |
| O=C(C[C@H]1C[C@@H]2c3cc(NS(=O)(=O)c4ccc(F)cc4)ccc3O[C@@H]2[C@H](CO)O1)N1CCOCC1 | inactive | inactive |
| COc1ccc(NC(=O)N(C)C[C@@H]2OCCCC[C@@H](C)Oc3ccc(NS(=O)(=O)c4ccc(C)cc4)cc3C(=O)N([C@H](C)CO)C[C@@H]2C)cc1 | inactive | inactive |
| C[C@@H]1CN([C@@H](C)CO)C(=O)c2cc(NC(=O)Nc3cccc4ccccc34)ccc2O[C@@H](C)CCCCO[C@@H]1CN(C)S(=O)(=O)c1cccs1 | inactive | inactive |
| C[C@@H]1CN([C@@H](C)CO)C(=O)Cc2cc(NC(=O)Nc3ccc(C(F)(F)F)cc3)ccc2O[C@H]1CN(C)Cc1ccncc1 | inactive | inactive |
| Cc1cc(C(=O)Nc2cccc3c2O[C@@H](CN(C)Cc2ccncc2)[C@@H](C)CN([C@H](C)CO)C3=O)n(C)n1 | inactive | inactive |
| CN1C=C(C(=O)OCCS(C)(=O)=O)C(C(=O)OCCS(C)(=O)=O)=CC(CCCO)=C[C@@H]1C1CC1 | inactive | inactive |
| C[C@H](CO)N1C[C@H](C)[C@H](CN(C)S(C)(=O)=O)Oc2ccc(NC(=O)CCCCCC(=O)Nc3ccccc3N)cc2CC1=O | inactive | inactive |
| Cc1noc(C)c1S(=O)(=O)N(C)C[C@@H]1Oc2ccc(NC(=O)Cc3ccccc3)cc2CC(=O)N([C@@H](C)CO)C[C@@H]1C | inactive | inactive |
| Cc1c(C)n2c3c(=O)n(C)c(=O)n(C)c3nc2n1CCN1CCOCC1 | inactive | inactive |
| C[C@H]1CN([C@@H](C)CO)C(=O)Cc2cc(NC(=O)CCN3CCOCC3)ccc2O[C@H]1CN(C)S(=O)(=O)c1ccc(Cl)cc1 | inactive | inactive |
| C[C@@H]1CCCCO[C@H](CN(C)C(=O)C2CCCCC2)[C@H](C)CN([C@@H](C)CO)C(=O)c2cc(NC(=O)Cc3ccccc3)ccc2O1 | inactive | inactive |
| CCC1(O)C(=O)OCc2c1cc1n(c2=O)Cc2cc3cc(O)ccc3nc2-1 (stereo not given) | inactive | inactive |
| C[C@H](CO)N1C[C@H](C)[C@@H](CN(C)S(=O)(=O)c2cn(C)cn2)Oc2ccc(NC(=O)Nc3ccccc3)cc2CC1=O | inactive | inactive |
| Clc1ccc2nncn2n1 | inactive | inactive |
| O=c1cn[nH]c(Nc2ccccc2)n1 | inactive | inactive |

| Compound | cytotoxicity call (HSkMC) | growth inhibition call (S. aureus RN4220) |
| --- | --- | --- |
| Cc1noc(C)c1NC(=O)N(C)C[C@H]1Oc2ncc(C#CCC(C)C)cc2C(=O)N([C@@H](C)CO)C[C@H]1C | inactive | inactive |
| COc1ccc(C#Cc2ccc3c(c2)O[C@@H](CN(C)C(=O)c2ccccn2)[C@H](C)CN([C@H](C)CO)S3(=O)=O)cc1 | inactive | inactive |
| Cc1ccc(S(=O)(=O)N(C)C[C@H]2Oc3ccc(NC(=O)CCCN(C)C)cc3C(=O)N([C@H](C)CO)C[C@H]2C)cc1 | inactive | inactive |
| CCOC(=O)[C@H](CCc1ccccc1)N[C@@H](C)C(=O)N1C(=O)N(C)C[C@H]1C(=O)O | inactive | inactive |
| O=C(NCC(=O)N1CCOCC1)c1ccccc1 | inactive | inactive |
| O=C(O)CNS(=O)(=O)c1ccccc1F | inactive | inactive |
| COc1cccc(S(=O)(=O)Nc2ccc3c(c2)[C@@H]2C[C@H](CC(=O)NC4CCCCC4)O[C@@H](CO)[C@@H]2O3)c1 | inactive | inactive |
| COc1ccc(CN(C)C[C@H]2OCCCC[C@H](C)Oc3ccc(NC(=O)Nc4ccccc4)cc3C(=O)N([C@H](C)CO)C[C@H]2C)cc1 | inactive | inactive |
| C[C@@H]1CN([C@H](C)CO)C(=O)c2cccc(NC(=O)c3nc4ccccc4s3)c2O[C@H]1CN(C)C(=O)Nc1ccc(C(F)(F)F)cc1 | inactive | inactive |
| C[C@@H]1CCCCO[C@@H](CN(C)C(=O)Cc2ccccc2)[C@@H](C)CN([C@H](C)CO)C(=O)c2cc(NS(=O)(=O)c3ccc(F)cc3)ccc2O1 | inactive | inactive |
| CS(=O)(=O)N1CC[C@]2(COCc3cnc(N4CCOCC4)nc32)C1 | inactive | inactive |
| C[C@H](CO)N1C[C@H](C)[C@@H](CN(C)C(=O)Cc2ccccc2)OCCCC[C@H](C)Oc2ccc(NC(=O)Cc3ccccc3)cc2C1=O | inactive | inactive |
| C[C@@H]1CN([C@@H](C)CO)C(=O)c2cc(NC(=O)C3CCCCC3)ccc2O[C@H]1CN(C)C(=O)Nc1cccc2ccccc12 | inactive | inactive |
| COc1ccnc(N)c1 | inactive | inactive |
| NC(=O)CCN1CCn2c1nc1ccccc12 | inactive | inactive |
| CCCN(C)C[C@H]1OCCCC[C@@H](C)Oc2ccc(NS(=O)(=O)c3cn(C)cn3)cc2C(=O)N([C@@H](C)CO)C[C@@H]1C | inactive | inactive |
| O=Cc1ccc[nH]1 | inactive | inactive |
| Cn1cnc(S(=O)(=O)N2C[C@@H](O)COC[C@H]3O[C@H](CC(=O)NCc4ccc(F)cc4)CC[C@@H]32)c1 | inactive | inactive |
| Cc1noc(C)c1NC(=O)Nc1ccc2c(c1)C(=O)N([C@H](C)CO)C[C@H](C)[C@H](CN(C)Cc1ccc(C(=O)Nc3ccccc3N)cc1)OCCCC[C@@H](C)O2 | inactive | inactive |
| O=C(O)c1cc(N=Nc2ccc(S(=O)(=O)Nc3ccccn3)cc2)ccc1O | inactive | inactive |
| CNC(=O)C(=O)NCCc1c[nH]c2ccccc12 | inactive | inactive |
| NCc1cccc2c1OCC2 | inactive | inactive |

| Compound | cytotoxicity call (HSkMC) | growth inhibition call (S. aureus RN4220) |
| --- | --- | --- |
| C[C@H]1CN([C@@H](C)CO)C(=O)c2c(c3ccccc3n2C)-c2ccccc2CO[C@H]1CN(C)S(=O)(=O)c1ccc(C(F)(F)F)cc1 | inactive | inactive |
| N=C(N)N/N=C1\CCc2c(C(=N)N)cccc21 | active | inactive |
| OCC1c2ccccc2-c2ccccc21 | inactive | inactive |
| CC(=O)c1ccc(O)c(C(N)=O)c1 | inactive | inactive |
| Cc1ccc(S(=O)(=O)Nc2ccc3c(c2)C(=O)N([C@H](C)CO)C[C@@H](C)[C@H](CN(C)C(=O)NC2CCCCC2)OCCCC[C@@H](C)O3)cc1 | inactive | inactive |
| CO[C@@H]1CN(C)C(=O)c2cc(NC(=O)NC3CCCCC3)ccc2OC[C@H](C)N(CCc2ccccc2)C[C@@H]1C | inactive | inactive |
| C[C@@H]1CN([C@H](C)CO)C(=O)Cc2cc(NC(=O)Cc3ccccc3)ccc2O[C@@H]1CN(C)Cc1ccc(C(F)(F)F)cc1 | inactive | inactive |
| C[C@@H]1CN([C@H](C)CO)C(=O)c2cccc(NS(=O)(=O)c3ccccc3)c2O[C@@H]1CN(C)S(=O)(=O)c1cccs1 | inactive | inactive |
| C[C@H]1CN([C@@H](C)CO)C(=O)Cc2cc(NS(=O)(=O)c3ccccc3)ccc2O[C@H]1CN(C)Cc1ccc(Cl)c(Cl)c1 | inactive | inactive |
| COc1ccc(S(=O)(=O)N(C)C[C@@H]2Oc3ccc(NC(=O)NC(C)C)cc3CC(=O)N([C@@H](C)CO)C[C@@H]2C)cc1 | inactive | inactive |
| C[N+](C)(C)CCCC[C@@H]1NC(=O)[C@H]2C[C@@H](C(=O)NCc3ccc(F)cc3)[C@@H](c3ccc(O)cc3)N2C1=O | inactive | inactive |
| CCO[C@H]1OC(C(N)=O)=C[C@@H](C)[C@@H]1CCCO | inactive | inactive |
| C[C@@H]1CCCCO[C@@H](CN(C)C(=O)Nc2ccc3c(c2)OCO3)[C@H](C)CN([C@H](C)CO)C(=O)c2cc(NC(=O)C3CCCCC3)ccc2O1 | inactive | inactive |
| C[C@@H]1CN([C@H](C)CO)C(=O)Cc2cc(NC(=O)Cn3cnnn3)ccc2O[C@H]1CN(C)CC1CC1 | inactive | inactive |
| C[C@@H]1CN([C@@H](C)CO)C(=O)c2cc(C#Cc3cccnc3)cnc2O[C@@H]1CN(C)S(=O)(=O)c1ccccc1F | inactive | inactive |
| O=C(C[C@@H]1C[C@H]2c3cc(NS(=O)(=O)c4ccc(F)cc4)ccc3O[C@H]2[C@H](CO)O1)NCc1ccccc1F | inactive | inactive |
| C[C@H]1CCCCO[C@H](CN(C)Cc2ccc(Cl)c(Cl)c2)[C@@H](C)CN([C@@H](C)CO)C(=O)c2cc(NC(=O)Nc3ccccc3)ccc2O1 | inactive | inactive |
| C[C@H](CO)N1C[C@H](C)[C@@H](CN(C)C(=O)Nc2ccc(C(F)(F)F)cc2)Oc2ncc(/C=C/c3ccccc3)cc2C1=O | inactive | inactive |
| COc1ccc(CN(C)C[C@@H]2OCCCC[C@@H](C)Oc3ccc(NC(=O)CCCCCC(=O)Nc4ccccc4N)cc3C(=O)N([C@H](C)CO)C[C@@H]2C)cc1 | inactive | inactive |
| O=C(C[C@@H]1C[C@@H]2c3cc(NS(=O)(=O)c4ccc(F)cc4)ccc3O[C@@H]2[C@H](CO)O1)NCc1ccncc1 | inactive | inactive |
| Cc1noc(C)c1NC(=O)Nc1ccc2c(c1)CC(=O)N([C@@H](C)CO)C[C@@H](C)[C@H](CN(C)C(=O)NC(C)C)O2 | inactive | inactive |
